# Experimental data taken from the supplement of paper PMC8728848.
# Some of the results follow.
# Legend:
# Test in all cases: glycan array binding signal (z-score within array); higher = stronger binding
# Details in all cases: glycan notation: IUPAC condensed, linker removed
# [1] = biological target: GlcNAc(b1-4)[GlcNAc(b1-6)]GalNAc
# Outline: (§1)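 The Consortium for Functional Glycomics database supplied 3228 glycan arrays, of which those lacking an available protein sequence were dropped. The binding signal, a within-array Z-score, was averaged across arrays of the same protein sequence and across linkers. Negative scores can be read as non-binding.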
# [2] = biological target: GlcNAc(b1-6)Gal(b1-4)GlcNAc
# Outline: as §1
# [3] = biological target: GlcNAc(b1-6)GalNAc
# Outline: as §1
# [4] = biological target: Kdn(a2-3)Gal(b1-3)GlcNAc
# Outline: as §1
# [5] = biological target: Kdn(a2-3)Gal(b1-4)GlcNAc
# Outline: as §1
# [6] = biological target: Man(a1-2)Man(a1-2)Man(a1-3)Man
# Outline: as §1
# [7] = biological target: Man(a1-2)Man(a1-2)Man(a1-3)[Man(a1-2)Man(a1-3)[Man(a1-2)Man(a1-6)]Man(a1-6)]Man(b1-4)GlcNAc(b1-4)GlcNAc
# Outline: as §1
# [8] = biological target: Man(a1-2)Man(a1-2)Man(a1-3)[Man(a1-2)Man(a1-6)[Man(a1-3)]Man(a1-6)]Man(b1-4)GlcNAc(b1-4)GlcNAc
# Outline: as §1
# [9] = biological target: Man(a1-2)Man(a1-2)Man(a1-6)[Man(a1-3)]Man
# Outline: as §1
# [10] = biological target: Man(a1-2)Man(a1-3)Man
# Outline: as §1
# [11] = biological target: Man(a1-2)Man(a1-3)[Man(a1-2)Man(a1-6)]Man
# Outline: as §1
# [12] = biological target: Man(a1-2)Man(a1-3)[Man(a1-3)[Man(a1-6)]Man(a1-6)]Man(b1-4)GlcNAc(b1-4)GlcNAc
# Outline: as §1
# [13] = biological target: Man(a1-2)Man(a1-3)[Man(a1-6)]Man(a1-6)[Man(a1-2)Man(a1-3)]Man(b1-4)GlcNAc(b1-4)GlcNAc
# Outline: as §1
# [14] = biological target: Man(a1-3)[Man(a1-6)]Man
# Outline: as §1
# [15] = biological target: Man(a1-3)[Man(a1-6)]Man(a1-6)[Man(a1-3)]Man(b1-4)GlcNAc(b1-4)GlcNAc
# Outline: as §1
# [16] = biological target: Man(a1-3)[Man(a1-6)]Man(b1-4)GlcNAc(b1-4)GlcNAc
# Outline: as §1
# [17] = biological target: Man(b1-4)GlcNAc
# Outline: as §1
# [18] = biological target: Neu5Ac(a2-3)Gal
# Outline: as §1
# [19] = biological target: Neu5Ac(a2-3)Gal(b1-3)GalNAc
# Outline: as §1
# [20] = biological target: Neu5Ac(a2-3)Gal(b1-3)GalNAc(b1-3)Gal(a1-4)Gal(b1-4)Glc
# Outline: as §1
# [21] = biological target: Neu5Ac(a2-3)Gal(b1-3)GalNAc(b1-4)[Neu5Ac(a2-3)]Gal(b1-4)Glc
# Outline: as §1
# [22] = biological target: Neu5Ac(a2-3)Gal(b1-3)GalNAc6S
# Outline: as §1
# [23] = biological target: Neu5Ac(a2-3)Gal(b1-3)GlcNAc
# Outline: as §1
# [24] = biological target: Neu5Ac(a2-3)Gal(b1-3)GlcNAc(b1-3)Gal(b1-4)GlcNAc
# Outline: as §1
# [25] = biological target: Neu5Ac(a2-3)Gal(b1-3)GlcNAc6S
# Outline: as §1
# [26] = biological target: Neu5Ac(a2-3)Gal(b1-3)[Fuc(a1-4)]GlcNAc
# Outline: as §1
# [27] = biological target: Neu5Ac(a2-3)Gal(b1-3)[Fuc(a1-4)]GlcNAc(b1-3)Gal(b1-4)[Fuc(a1-3)]GlcNAc
# Outline: as §1
# [28] = biological target: Neu5Ac(a2-3)Gal(b1-3)[Neu5Ac(a2-3)Gal(b1-4)]GlcNAc
# Outline: as §1
# [29] = biological target: Neu5Ac(a2-3)Gal(b1-3)[Neu5Ac(a2-6)]GalNAc
# Outline: as §1
# [30] = biological target: Neu5Ac(a2-3)Gal(b1-4)Glc
# Outline: as §1
# [31] = biological target: Neu5Ac(a2-3)Gal(b1-4)GlcNAc
# Outline: as §1
# [32] = biological target: Neu5Ac(a2-3)Gal(b1-4)GlcNAc(b1-3)Gal(b1-4)GlcNAc
# Outline: as §1
# [33] = biological target: Neu5Ac(a2-3)Gal(b1-4)GlcNAc(b1-3)Gal(b1-4)GlcNAc(b1-3)Gal(b1-4)GlcNAc
# Outline: as §1
# [34] = biological target: Neu5Ac(a2-3)Gal(b1-4)GlcNAc(b1-3)Gal(b1-4)[Fuc(a1-3)]GlcNAc
# Outline: as §1
binder,measurement,setting,value
"Crocus Lectin (Crocus vernus), Q9FVA1 (protein) MAKSLVLSSLLLALLLAAPLASLADNNVLLTGDVLHTDNQLSFESAAFVMQGDCNLVLYNEAGGFQSNTHGRGVGCTLRLNNFGQLEIHSANSNTPVWVSLRNGIPVRGDYAAVLGPDQHVTIYGPAIWSTPAPNRHERGATVSNIPRVRNVLFSSQVMSDNAQLATRDYSLVMRDDCNLALTKGSKTNIVWESGTSGRGQHCFMRLGHTGLIEISDDRLNTVWRSNTVGQEGDYVLILQINGQAVVYGPAVWSTASPARGGASAAL",glycan array binding signal (z-score),[1],-0.187
same,glycan array binding signal (z-score),[2],-0.191
same,glycan array binding signal (z-score),[3],-0.175
same,glycan array binding signal (z-score),[4],-0.174
same,glycan array binding signal (z-score),[5],-0.161
same,glycan array binding signal (z-score),[6],-0.167
same,glycan array binding signal (z-score),[7],0.3
same,glycan array binding signal (z-score),[8],0.047
same,glycan array binding signal (z-score),[9],-0.192
same,glycan array binding signal (z-score),[10],-0.163
same,glycan array binding signal (z-score),[11],-0.163
same,glycan array binding signal (z-score),[12],3.76
same,glycan array binding signal (z-score),[13],1.89
same,glycan array binding signal (z-score),[14],7.87
same,glycan array binding signal (z-score),[15],7.04
same,glycan array binding signal (z-score),[16],6.62
same,glycan array binding signal (z-score),[17],-0.199
same,glycan array binding signal (z-score),[18],-0.184
same,glycan array binding signal (z-score),[19],-0.19
same,glycan array binding signal (z-score),[20],-0.19
same,glycan array binding signal (z-score),[21],-0.154
same,glycan array binding signal (z-score),[22],-0.192
same,glycan array binding signal (z-score),[23],-0.194
same,glycan array binding signal (z-score),[24],-0.186
same,glycan array binding signal (z-score),[25],-0.182
same,glycan array binding signal (z-score),[26],-0.169
same,glycan array binding signal (z-score),[27],-0.167
same,glycan array binding signal (z-score),[28],-0.169
same,glycan array binding signal (z-score),[29],-0.169
same,glycan array binding signal (z-score),[30],-0.188
same,glycan array binding signal (z-score),[31],-0.16
same,glycan array binding signal (z-score),[32],-0.166
same,glycan array binding signal (z-score),[33],-0.202
same,glycan array binding signal (z-score),[34],-0.137
